Laboratory results published in PubChem BioAssay AID488969 (Vanderbilt High Throughput Screening Facility, 2010).
Over roughly 110,000 compounds, “z-score” has its median near -0.1; the highest 2% begin near 2. This is one part of the list.

Target: Metabotropic glutamate receptor 8 (Rattus norvegicus) (UniProt P70579)
Assay: mGluR8 Gi/Go-coupled signaling modulation – cell-based, rat, thallium flux, HTS, primary screen (AID 488969)
Conditions: HEK293 rat mGluR8, GIRK (G protein-gated inwardly rectifying potassium channel) thallium flux, FluoZin2; at 10 µM; stronger effect = higher value; submaximal glutamate (EC20) added with thallium

UniProt P70579, sequence (P70579 whole entry, looked up): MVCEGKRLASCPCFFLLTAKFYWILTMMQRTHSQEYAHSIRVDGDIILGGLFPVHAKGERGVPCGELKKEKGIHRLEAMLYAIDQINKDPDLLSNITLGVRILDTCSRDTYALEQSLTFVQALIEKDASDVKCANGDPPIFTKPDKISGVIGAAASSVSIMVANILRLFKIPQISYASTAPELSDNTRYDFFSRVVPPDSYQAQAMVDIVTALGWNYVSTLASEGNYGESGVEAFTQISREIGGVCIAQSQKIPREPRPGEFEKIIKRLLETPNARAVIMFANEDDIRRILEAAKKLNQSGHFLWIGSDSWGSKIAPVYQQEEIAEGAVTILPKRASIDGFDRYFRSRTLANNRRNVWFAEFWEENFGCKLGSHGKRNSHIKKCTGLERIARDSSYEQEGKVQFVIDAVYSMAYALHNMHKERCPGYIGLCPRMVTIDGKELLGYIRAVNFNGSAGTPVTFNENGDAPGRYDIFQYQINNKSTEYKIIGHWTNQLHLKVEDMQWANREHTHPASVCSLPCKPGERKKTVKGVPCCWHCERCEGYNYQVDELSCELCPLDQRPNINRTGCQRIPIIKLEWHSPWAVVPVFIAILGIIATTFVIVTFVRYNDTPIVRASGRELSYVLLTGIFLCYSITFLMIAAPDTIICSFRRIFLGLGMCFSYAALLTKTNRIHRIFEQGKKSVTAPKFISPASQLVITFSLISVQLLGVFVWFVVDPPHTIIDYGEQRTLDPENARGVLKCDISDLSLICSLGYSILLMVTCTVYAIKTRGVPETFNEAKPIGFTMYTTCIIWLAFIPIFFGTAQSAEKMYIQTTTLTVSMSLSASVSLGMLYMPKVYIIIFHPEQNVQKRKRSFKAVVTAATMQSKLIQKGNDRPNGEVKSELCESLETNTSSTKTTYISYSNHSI

SMILES	z-score
N#Cc1c(SCC(=O)Nc2nccs2)nc2c(c1-c1ccco1)CCCC2	-0.0832
COc1ccccc1-n1c(SCC(=O)N2CCc3ccccc32)nc2c(c1=O)SCC2	-0.558
COC(=O)c1ccc(OC(=O)c2ccc(OC)c(OC)c2)c(OC)c1	0.0246
COc1ccccc1NC(=O)CSc1ncn(-c2ccccc2)n1	-1.05
CCOC(=O)C1CCCN(Cc2nc(N)nc(Nc3ccccc3)n2)C1 (stereo not drawn)	-0.746
CCOC(=O)CNC(=S)N(Cc1cccs1)C1CCCC1	0.332
O=C(Cn1c(-c2cscn2)nc2ccccc21)Nc1cc(F)ccc1F	-0.259
O=C1[C@@H]2Cc3ccccc3CN2C(=O)N1c1cccc(F)c1	0.928
O=C(CNC(=O)c1ccc2c(c1)OCCO2)N/N=C/c1ccc(O)cc1O	0.225
CCC(C)Sc1nc2c(c(=O)[nH]c(=O)n2C)n1CCc1ccccc1 (stereo not drawn)	-0.196
c1cnc2ccc(C(c3nnnn3C3CCCCC3)N3CCN4CCCC4C3)cc2c1 (stereo not drawn)	-1.16
COC(=O)C1=C(N)N(c2ccccc2C(F)(F)F)C2=C(C(=O)CCC2)C1c1ccc2c(c1)OCO2 (stereo not drawn)	-0.087
COc1cccc(N(C(=O)c2nc3nccc(C)n3n2)c2nc3ccccc3s2)c1	-0.186
Cc1ccc(S(=O)(=O)N(C)c2ccc(OCC(=O)O)cc2)cc1	0.0713
Cc1occc1-c1nnc(SCC(=O)NC(C)(C)C)n1C(C)c1ccccc1 (stereo not drawn)	0.32
COc1ccc(-c2c(C#N)c(N)nc3c2CCCCCC3)cc1OC	-0.576
Clc1ccc(-c2cc(COc3ccc4ccccc4c3)no2)cc1	-0.057
Cn1c(-c2ccc(F)cc2)cnc1SCC(=O)N1CCCc2ccccc21	-0.388
COc1cc(OC)cc(C(=O)N2CCC(C(=O)Nc3ccc4c(c3)OCCO4)CC2)c1	-0.273
Cc1c(O)ccc(-c2[nH]ncc2-c2nc3ccccc3s2)c1O	-0.116
Cc1c(CN2CCC(C)CC2)c(=O)n(-c2ccccc2)n1C	0.419
Cc1ccccc1-c1nnc(SCC(=O)Nc2ccc3c(c2)OCCO3)n1N	0.775

SMILES	z-score
COc1cccc(N=c2oc3c(C)ncc(CO)c3cc2C(N)=O)c1	-0.0525
Cc1noc(C)c1COc1ccc(C(=O)OCC(=O)Nc2ccc3ccccc3c2)cc1	0.103
Cc1ccc(-c2nnc3sc(-c4ccncc4)nn23)cc1	-0.701
O=C(NCc1cccs1)c1nc2ncccn2n1	-0.124
COc1cccc(S(=O)(=O)NCc2ccc(C(=O)NCC3CCCO3)cc2)c1 (stereo not drawn)	0.0353
Cc1ccc(CNC(=O)c2ccccc2NS(C)(=O)=O)cc1	-0.309
Cc1nn(CC(=O)Nc2ccccc2)c(=O)c2ccccc12	0.384
CC(=O)Nc1cc(C(=O)NCc2ccco2)ccc1Sc1ccc(Cl)cc1	-0.105
Cc1ccc(NC(=O)c2cccs2)cc1S(=O)(=O)N(C)C	-0.319
O=C(Nc1ccccc1Cl)c1ccccc1S(=O)(=O)c1ccccc1[N+](=O)[O-]	-0.14
CC(=O)c1ccc(NC(=O)c2cc3nc4c(c(C(F)(F)F)n3n2)CCCC4)cc1	-0.059
CCOc1ccc(CNC(=O)c2ccc(Sc3ccc(Cl)cc3)c(NC(C)=O)c2)cc1OC	0.0794
O=C1CCCc2c1cc(C(=O)NC1CCSC1=O)c(=O)n2-c1ccccc1 (stereo not drawn)	-0.276
COc1ccc(NC(=O)CN2CCCN(S(=O)(=O)c3ccc(F)cc3)CC2)cc1	-0.00587
Cc1cccnc1NC1OC(=O)c2ccccc21 (stereo not drawn)	0.202
COc1ccc2nc3sc(C(=O)NCCN4CCc5ccccc5C4)cc3cc2c1	-0.0482
Cc1ccc(OCCC(=O)OCC(=O)C(C)(C)C)cc1	-0.197
CCc1ccc(Nc2nc(N)nc(CSc3nc4ccccc4s3)n2)cc1	-1.21
CC1(C)Cc2nc3nc(SCC(=O)NCCc4ccccc4)n(-c4ccccc4)c(=O)c3cc2CO1	0.541
O=C(CN1C(=O)COc2ccccc21)NCc1ccccn1	0.219
O=C(CC(Sc1n[nH]c(-c2ccccc2)n1)c1ccccc1)NCc1ccccc1 (stereo not drawn)	-0.149
Cc1ccc(CC(=O)N2CC(C)OC(C)C2)cc1 (stereo not drawn)	0.364

SMILES	z-score
CC(C)(C)c1ccc(C(=O)N2CCCN(C(=O)c3ccc(C(C)(C)C)cc3)CC2)cc1	-0.188
Oc1ccccc1C=NC(c1ccccc1)C(O)c1ccccc1 (stereo not drawn)	-0.186
Cc1[nH]c(=O)[nH]c(=O)c1S(=O)(=O)N1CCCC(C(=O)NCCc2ccc(Cl)cc2)C1 (stereo not drawn)	-0.14
Cn1c(=O)c2c(nc(CN3CCN(C(=O)c4ccco4)CC3)n2CCCc2ccccc2)n(C)c1=O	-0.0502
CC(C)NS(=O)(=O)c1ccc(OCC(=O)Nc2ccc3c(c2)OCCO3)cc1	-0.176
Cc1cc(C)n2nc(C(=O)NCCc3ccccc3)nc2n1	-0.0762
O=C(NNC(=O)c1cc(O)c(O)c(O)c1)NC1CCCCC1	-0.0107
CCn1c(SCC(=O)NCCc2ccccc2)nc2c(c1=O)SC(C)C2 (stereo not drawn)	-1.26
Cc1cc(/C=N\O)c(C)n1-c1ccncc1	0.562
Cc1ccc(CS(=O)(=O)Cc2ccc(C(=O)NCCCN3CCOCC3)o2)cc1	-0.221
CCCCCCCCSc1nnc(CSc2nc3nc(C)cc(C)n3n2)o1	-0.0354
COCCNC(=O)C1CC(=O)N(c2ccc(F)c(Cl)c2)C1 (stereo not drawn)	0.538
CC(C)NC(=O)c1ccc(CNC(=O)OCC(F)(F)F)cc1	0.123
Cc1ccc(NC(=O)CC2S/C(=N/N=C/c3c[nH]c4ccccc34)NC2=O)cc1 (stereo not drawn)	-0.197
Cc1cc(C)[n+]2n1C(=O)C(c1ccccc1)=C2[O-]	2.57
Cn1c(=O)c2c(SCc3ccccn3)nc(-c3ccccc3)nc2n(C)c1=O	-0.403
CCNC(=O)N1CCNC(=O)C1CC(=O)OC (stereo not drawn)	-0.0425
COc1ccc(/C=N/Nc2cc(C)nc(NS(=O)(=O)c3ccc(C)cc3)n2)cc1	-0.501
CCC(C)N(C(=O)CSc1nc(-c2ccccc2)cs1)C1CCS(=O)(=O)C1 (stereo not drawn)	0.927
CN(C)S(=O)(=O)c1ccc(NC(=O)c2c(F)cccc2Cl)cc1	-0.0238
O=C(O)C1C2C=CC3(O2)C1C(=O)N1c2ccccc2C2OCCC2C13 (stereo not drawn)	0.326
CCCSc1nc(C)c(CC(=O)O)c(=O)[nH]1	0.00302

SMILES	z-score
O=C(NCCN1CCOCC1)c1csc2c1CCCC2	0.0583
N#CC1=C(N)N(c2ccccc2)C(c2cccc([N+](=O)[O-])c2)C1(C#N)C#N (stereo not drawn)	-0.422
O=C(CSc1nc2ccc(Cl)cc2[nH]1)NCc1ccco1	-0.042
Cc1c(OCc2ccccc2)c(=O)ccn1Cc1ccc(Cl)cc1	-0.131
COC(=O)[C@H](CCSC)NC(=O)NCc1ccccn1	0.183
Cc1cc(C)nc(-n2ncc3c2CC(c2ccc(C(C)C)cc2)CC3=O)n1 (stereo not drawn)	-0.724
COc1ccc(CCNc2nncc(=O)[nH]2)cc1OC	-0.392
Cc1ccc(NC(=O)COC(=O)CN2C(=O)COc3ccccc32)cc1	0.349
Cc1ccc(CSc2nc3ccsc3c(=O)n2Cc2ccccn2)cc1	-0.158
Cc1cccc2sc(NC(=O)C3CCCN(S(=O)(=O)c4cccc5nonc45)C3)nc12 (stereo not drawn)	0.344
CO/N=C/c1ccc(N2CCN(C(=O)c3ccc(F)cc3)CC2)c([N+](=O)[O-])c1	-0.0861
COC(=O)CSc1nsc(SCC(=O)OC)c1C#N	-1.31
CC(=O)C1=NN(c2ccccc2)C(c2ccc3c(c2)OCO3)N1c1ccc(N2CCOCC2)cc1 (stereo not drawn)	-0.272
Cc1nc(N)nc(-c2ccccc2O)n1	-0.0718
CC(C(=O)Nc1ccccc1Br)c1ccc([N+](=O)[O-])cc1 (stereo not drawn)	-0.249
CCCCCC(=O)NC(=S)Nc1ccc(Cl)cn1	0.107
CCOc1nc(Nc2ccc([N+](=O)[O-])cc2)nc(NC(C)(C)C)n1	-0.416
COc1cccc(CSc2nc3sc(C)c(C)c3c(=O)n2Cc2ccco2)c1	-0.922
COC(=O)c1ccc(C(=O)OC)c(NC(=O)COC(=O)c2ccccc2OC)c1	-0.349
Cn1c(N)c(C(=O)COC(=O)C23CC4CC(CC(C4)C2)C3)c(=O)n(C)c1=O	0.00208
CCOc1cc(S(=O)(=O)NCc2ccc3c(c2)OCO3)c(C)cc1C	0.0193
CN1C(=S)SC(N2OC3C(=O)N(c4ccccc4)C(=O)C3C2c2ccc(Cl)cc2)C1(C)C (stereo not drawn)	0.274

SMILES	z-score
COC(=O)c1c(C)oc2ccc(N(C(=O)c3ccncc3)S(=O)(=O)c3ccc(C)cc3)cc12	-0.348
COC(=O)CSc1nnc(CNS(=O)(=O)c2ccc(Cl)cc2)n1C	0.115
C=CCOc1ccc(/C=N/n2cncn2)cc1OC	-1.97
Cc1[nH]n(-c2ccccc2)c(=O)c1CCOC(=O)c1ccc(C(F)(F)F)cc1	0.903
CCn1nccc1C(=O)Nc1ccc(Cl)cn1	0.0113
Cc1ccc2nc(SC(C)C(=O)NC3CCCc4ccccc43)[nH]c2c1 (stereo not drawn)	-0.653
Cc1ccc(C)n1-n1cnc2sc3c(c2c1=O)CCC3	-0.669
CNc1nc(N)c([N+](=O)[O-])c(NCCO)n1	-0.289
CCOC(=O)N1CCN(C(=O)c2ccc(N(C)S(C)(=O)=O)cc2)CC1	0.9
COc1ccc(CN2C3CCCC2CC(NC(=O)Nc2cccc(C)c2)C3)cc1 (stereo not drawn)	0.234
CCOC(=O)COc1ccccc1C1Nc2ccccc2C(=O)N1c1cccc(Cl)c1 (stereo not drawn)	-0.577
CN(C)c1ccc(C2NCC(CCl)O2)cc1 (stereo not drawn)	-0.159
Cc1ccc(C(C(=O)NC2CCCCC2)N(C(=O)Cc2c[nH]c3ccccc23)c2ccccc2)o1 (stereo not drawn)	-0.122
COc1ccc(-c2n[nH]c(C)c2-c2ccc(OC)c(OC)c2)c(O)c1	-0.332
COC(=O)c1c(NC(=O)CN2CCCc3ccccc32)sc(C)c1C	-0.0545
O=C(N/N=C/C=C/c1ccccc1[N+](=O)[O-])c1cc(-c2ccccc2)n[nH]1	0.153
CCCCOC(=O)C1=C(C)Nc2nnnn2C1c1ccccc1Cl (stereo not drawn)	-1.64
c1ccc(-c2ncc(CSc3nncn3-c3ccccc3)s2)cc1	-0.325
CC1CN(C(=O)CSc2nc(-c3ccc(F)cc3)cs2)CC(C)O1 (stereo not drawn)	-0.898
Cc1c(C(=O)N2CCCCC2)sc(NC(=O)C(C)C)c1C#N	0.972
